In paper PMC10726135:
Some of the results follow. At the low end of the ranking the order means little. Measured with an extract: partners may take part in the binding.

biological target: T1, HNF4alpha2 (COS-7 nuclear extract) (UniProt P41235); experiment: protein-binding microarray; conditions: COS-7 nuclear extract on double-stranded Agilent 4x180k PBM; binding buffer, salt, pH and temperature not given; high values mean tight binding; double strand, one strand shown; sequences stand for … in …GCCTAGGGAGATTAGAGTATCGGTCGA
T1 sequence: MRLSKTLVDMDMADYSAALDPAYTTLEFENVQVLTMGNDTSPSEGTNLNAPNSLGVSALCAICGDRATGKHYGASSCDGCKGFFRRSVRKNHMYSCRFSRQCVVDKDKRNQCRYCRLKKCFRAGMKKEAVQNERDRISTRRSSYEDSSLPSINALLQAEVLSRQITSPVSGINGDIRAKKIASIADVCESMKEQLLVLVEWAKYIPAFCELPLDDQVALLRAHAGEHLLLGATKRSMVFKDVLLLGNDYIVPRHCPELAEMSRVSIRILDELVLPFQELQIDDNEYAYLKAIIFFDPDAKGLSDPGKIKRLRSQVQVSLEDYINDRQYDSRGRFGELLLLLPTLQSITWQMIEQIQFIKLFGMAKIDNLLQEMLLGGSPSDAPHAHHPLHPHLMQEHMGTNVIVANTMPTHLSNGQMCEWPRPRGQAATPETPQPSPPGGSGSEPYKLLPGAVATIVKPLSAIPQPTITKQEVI

Sequence | binding signal (log2 normalized intensity)
ACACAAACTCTGGAGTTTGCCCTTCACAAA | 3.5
AATCTGTGACTGAGCAGAGATTTGACCTAA | 2.68
GGACAAACTGAGGAGGACATACTCCTACCA | -1.16
AAGGGACAGGGGCCCAAGATAAAGGGACAG | -1.18
AGAAGAAAGGGGCTAGGGCAAAGATCAAAC | 2.39
AAGGACAAAGGTCATGTTTTCAAACAATGA | 5.44
CTGTGTCAGCAGAAGGCCCCAGGTGAACCA | 0.474
TTACTCTTAGAGATAATGGGGGAGCCACTG | -1.18
CTAACCAGCTCTATCAGTCTGGGTCCAGTC | 2.23
CTCATGGGCCTAAACATTCCCCTTTGTCTA | 1.69
AGGTCATGCATAGAAGTATGTCTGGGATTT | 1.44
CTGGTCCCCTGCACAGTCAAAAATTTGTGT | 0.967
TGTATGACCTTTGTTTTATTGTCATGCTGA | 2.75
AGCACTTCATCCTTATGTAACTGTAACTAT | 0.74
TAGATATCGCTCCAAGAGCCAACAGGAATT | -1.2
GATCTTTGGGCCATATTGACTAAACATTCT | 0.122
GTTACATCATAGTGTTTGCCTTATTTGAAC | 2.05
AGAGTGAGCAGCACTTTTGGAGTTTGACCT | 7.73
AGTGACATGCTTGCTTTTCAAACAGTGTGC | 1.44
GTGTATGGGTATAGGCGCGCGTGTGTGTGT | 2.81
GGTGGAGAAAGGCAGAAGGTTCCAGGGAAC | -1.22
TCCAGCATTCTTTTCCCCATACCAGGCAGT | 2.37
TTACTGACTCCACAGTGGGGCAGATCACAA | -1.13

Sequence | binding signal (log2 normalized intensity)
TTGGCTCTTATGTCCCTCCTGACCTTTGGA | 8.6
AAAAGGCAGTCCTTAGATCCACGGAGAATG | -0.624
TGTCAGGGAAGGCTAGCATTCCTGCACACC | -0.702
GCAGATGATCAAGAGGCTCTTCAATGCATT | -0.955
GTGAGTCAAGCACTTCTCACATCACGTCTC | -1.06
CAAATGAAAAGAATATCTCAGCAGCCTGGC | -0.732
CTGGCATAGCATGCCACGATGATTAGCTGA | -1.1
CACAGCTGGACTTTGGCTGCAAAATTTGAA | 3.04
GAAATTCTCAAAAGTTTTTCCCTTCTGTTA | 0.0227
GGTCACCTGGAAGCAGAAGGAGGAGGAGGT | -1.21
AGAATTCCTTCTTGCTTAGGATAGGGTCAG | 2.14
GAGGACAGTTGTGTTTGTTGACCACTCTTT | 1.84
GCAGTGAGAACAGGTTCATTCTTTAAGTGT | 1.36
GCCTCCCTGTGGGGGAGGTGCAGAGAGGGG | -0.929
CTTCCCTGGTCCTCAGGCCTTTGGACCCAG | 5.21
CTTCTCAACTAGGCCTGAAATTTGGCCTGC | 1
TGAATTCCAAAGGTTATTTTCTTTAAGCCT | 2.56
TATTTAAGGGTTCAGGGCAGAAGAGGTTAT | 1.27
GTGTATGATGACGCCACGCCGCTCTTTCTC | -0.853
AAACAGTACTGACATCTATCAACATATCTT | -0.574
CCCTTTGGCCTTTCTAATTATTTACAGGGA | 0.82
CTGGAGAATCCTCTCTTGCTCAGGTGAGGC | -1.17
GGCAGACTCAAGATAGAGGGCTGCCAAAGC | -1.12
